Test results reported in the supplement of paper PMC4967469.
IC50 is the fitted dose that halves viability relative to control wells, and lower means more sensitive; where the fit passes the top or lowest dose, that dose stands as a limit. The AUC spans the tested range (256-fold, ending at the top dose) of the same fit; the more sensitive the line, the further below 1. For some assays here: A top dose marked as inferred was calculated from the reported fits. For some assays here: An entry number marks a drug with two screens in the source, which often give different values.

Assays:
Assay in all cases: Viability of human cancer cell lines after 72 h of drug (GDSC screen)
VNLG/124 = compound: CCCC(=O)OCc1ccc(OC(=O)/C=C(C)/C=C/C=C(C)/C=C/C2=C(C)CCCC2(C)C)cc1 [VNLG/124]; conditions: top dose 5.12 µM; top dose inferred
Procedure: (§1)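 Human cancer cell lines in 384-well plates, medium with 10% serum, drug for 72 h over a 256-fold dose range (nine 2-fold or five 4-fold steps up to the top dose). Adherent lines were fixed and stained with the nucleic acid dye Syto60, suspension lines read with resazurin; signal relative to control wells, capped at 0 and 100%. One two-parameter sigmoid per drug and line, fitted in a mixed model over all curves with the slope shared within a line.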

Bleomycin = compound: Cc1c(N)nc([C@H](CC(N)=O)NC[C@H](N)C(N)=O)nc1C(=O)N[C@H](C(=O)N[C@H](C)[C@@H](O)[C@H](C)C(=O)N[C@H](C(=O)NCCc1nc(-c2nc(C(=O)NCCC[S+](C)C)cs2)cs1)[C@@H](C)O)[C@@H](OC1OC(CO)C(O)C(O)C1OC1OC(CO)C(O)C(OC(N)=O)C1O)c1cnc[nH]1 [Bleomycin]
Procedure: as §1

OSI-930 = compound: O=C(Nc1ccc(OC(F)(F)F)cc1)c1sccc1NCc1ccnc2ccccc12 [OSI-930]; conditions: top dose 10.24 µM
Procedure: as §1

Tamoxifen = compound: CC/C(=C(\c1ccccc1)c1ccc(OCCN(C)C)cc1)c1ccccc1 [Tamoxifen]; conditions: top dose 5 µM
Procedure: as §1

Elesclomol = compound: CN(NC(=O)CC(=O)NN(C)C(=S)c1ccccc1)C(=S)c1ccccc1 [Elesclomol]; conditions: top dose 0.2 µM; top dose inferred
Procedure: as §1

NSC-87877 = compound: O=S(=O)(O)c1ccc2cc(N=Nc3cc(S(=O)(=O)O)c4cccnc4c3O)ccc2c1 [NSC-87877]; conditions: top dose 16 µM; top dose inferred
Procedure: as §1

LAQ824 = compound: O=C(/C=C/c1ccc(CN(CCO)CCc2c[nH]c3ccccc23)cc1)NO [LAQ824]; conditions: top dose 1.024 µM; top dose inferred
Procedure: as §1

Masitinib = compound: Cc1ccc(NC(=O)c2ccc(CN3CCN(C)CC3)cc2)cc1Nc1nc(-c2cccnc2)cs1 [Masitinib]; conditions: top dose 20 µM
Procedure: as §1

BX-912 = compound: O=C(Nc1cccc(Nc2ncc(Br)c(NCCc3cnc[nH]3)n2)c1)N1CCCC1 [BX-912]; conditions: top dose 10.24 µM; top dose inferred
Procedure: as §1

[1] = top dose 50 µM, screen: GDSC drug entry 1378, top dose inferred
[2] = top dose 64 µM, screen: GDSC drug entry 190

| Cell Line | AUC (VNLG/124) | IC50 (VNLG/124) [µM] | AUC (Bleomycin; [1]) | IC50 (Bleomycin; [1]) [µM] | AUC (Bleomycin; [2]) | IC50 (Bleomycin; [2]) [µM] | AUC (OSI-930) | IC50 (OSI-930) [µM] | AUC (Tamoxifen) | IC50 (Tamoxifen) [µM] | AUC (Elesclomol) | IC50 (Elesclomol) [µM] | AUC (NSC-87877) | IC50 (NSC-87877) [µM] | AUC (LAQ824) | IC50 (LAQ824) [µM] | AUC (Masitinib) | IC50 (Masitinib) [µM] | AUC (BX-912) | IC50 (BX-912) [µM] |
| --- | --- | --- | --- | --- | --- | --- | --- | --- | --- | --- | --- | --- | --- | --- | --- | --- | --- | --- | --- | --- |
| JHH-6 (liver, adherent) | 0.98 | > 5.12 | 0.422 | 1.9 | 0.636 | 9.54 | 0.978 | > 10.2 | 0.952 | > 5 | 0.603 | 0.024 | 0.855 | 13.1 | 0.457 | 0.0489 | 0.986 | > 20 | 0.947 | > 10.2 |
| JHH-7 (liver, adherent) | 0.984 | > 5.12 | 0.816 | 25.5 | 0.679 | 12.2 | 0.972 | > 10.2 | 0.984 | > 5 | 0.676 | 0.0373 | 0.989 | > 16 | 0.548 | 0.0859 | 0.785 | 7.99 | 0.963 | > 10.2 |
| JHU-011 (head and neck, adherent) | 0.974 | > 5.12 | 0.103 | < 0.195 | 0.291 | 1.04 | 0.973 | > 10.2 | 0.985 | > 5 | 0.549 | 0.017 | 0.943 | > 16 | 0.212 | 0.00928 | 0.758 | 6.84 | 0.903 | > 10.2 |
| JM1 (B-cell lymphoma, suspension) | 0.991 | > 5.12 | 0.625 | 6.53 | 0.518 | 4.44 | 0.951 | > 10.2 | 0.988 | > 5 | 0.444 | 0.00898 | 0.964 | > 16 | 0.286 | 0.0176 | 0.908 | > 20 | 0.599 | 1.15 |
| JVM-2 (lymphoid neoplasm, suspension) | 0.939 | > 5.12 | 0.577 | 5.31 | 0.264 | 0.717 | 0.931 | > 10.2 | 0.946 | > 5 | 0.929 | > 0.2 | 0.971 | > 16 | 0.837 | 0.926 | 0.768 | 9.22 | 0.855 | > 10.2 |
| JVM-3 (lymphoid neoplasm, suspension) | 0.985 | > 5.12 | 0.432 | 2.03 | 0.964 | > 64 | 0.952 | > 10.2 | 0.963 | > 5 | 0.665 | 0.0364 | 0.974 | > 16 | 0.493 | 0.0613 | 0.931 | > 20 | 0.944 | > 10.2 |
| JiyoyeP-2003 (Burkitt lymphoma, suspension) | 0.952 | > 5.12 | 0.796 | 20.2 | 0.484 | 3.65 | 0.979 | > 10.2 | 0.984 | > 5 | 0.657 | 0.032 | 0.984 | > 16 | 0.428 | 0.0416 | 0.909 | > 20 | 0.981 | > 10.2 |
| KARPAS-45 (lymphoblastic leukaemia, suspension) | 0.978 | > 5.12 | 0.977 | > 50 | 0.894 | 54.1 | 0.913 | > 10.2 | 0.988 | > 5 | 0.774 | 0.0658 | 0.986 | > 16 | 0.177 | 0.0086 | 0.818 | 8.97 | 0.203 | 0.104 |
| KARPAS-299 (anaplastic large cell lymphoma, suspension) | 0.992 | > 5.12 | 0.812 | 21.4 | 0.768 | 20.1 | 0.97 | > 10.2 | 0.984 | > 5 | 0.881 | 0.149 | 0.988 | > 16 | 0.47 | 0.0537 | 0.876 | 14.3 | 0.931 | > 10.2 |
| KARPAS-422 (B-cell lymphoma, suspension) | 0.985 | > 5.12 | 0.961 | > 50 | 0.873 | 60.3 | 0.97 | > 10.2 | 0.982 | > 5 | 0.799 | 0.0947 | 0.983 | > 16 | 0.357 | 0.0259 | 0.809 | 10.3 | 0.782 | 4.22 |
| KARPAS-620 (haematopoietic neoplasm, suspension) | 0.956 | > 5.12 | 0.99 | > 50 | 0.807 | 27.4 | 0.881 | 8.09 | 0.98 | > 5 | 0.721 | 0.0475 | 0.991 | > 16 | 0.283 | 0.0174 | 0.595 | 2.19 | 0.566 | 0.941 |
| KE-37 (lymphoblastic leukaemia, suspension) | 0.973 | > 5.12 | 0.907 | 39.4 | 0.796 | 22.3 | 0.935 | > 10.2 | 0.994 | > 5 | 0.669 | 0.0326 | 0.981 | > 16 | 0.149 | 0.00794 | 0.901 | 14.9 | 0.24 | 0.143 |
| KLE (endometrium, adherent) | 0.965 | > 5.12 | 0.859 | > 50 | 0.627 | 10.9 | 0.975 | > 10.2 | 0.953 | > 5 | 0.854 | > 0.2 | 0.977 | > 16 | 0.507 | 0.0676 | 0.902 | > 20 | 0.924 | > 10.2 |
